Here are results for 7 molecules from PMC4314665, “Diversity of two-component systems: insights into the signal transduction mechanism by the Staphylococcus aureus two-component system GraSR” (F1000Research, 2014).

Chains of the proteins cited; added tags and fusions are not shown. Lines headed by an entry give the natural chain unless they say otherwise; changes in a name come on top. Residues count along the entry.
UniProt Q99VW1: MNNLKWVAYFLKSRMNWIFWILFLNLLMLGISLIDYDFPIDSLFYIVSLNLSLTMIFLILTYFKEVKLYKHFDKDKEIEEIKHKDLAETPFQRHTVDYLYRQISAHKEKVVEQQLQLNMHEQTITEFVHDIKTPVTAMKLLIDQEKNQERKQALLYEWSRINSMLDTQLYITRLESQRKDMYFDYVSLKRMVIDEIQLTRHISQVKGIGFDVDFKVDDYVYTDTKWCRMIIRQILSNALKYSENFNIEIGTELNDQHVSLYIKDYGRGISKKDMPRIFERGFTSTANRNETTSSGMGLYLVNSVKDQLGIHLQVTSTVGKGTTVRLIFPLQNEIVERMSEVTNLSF
UniProt Q9KWJ5: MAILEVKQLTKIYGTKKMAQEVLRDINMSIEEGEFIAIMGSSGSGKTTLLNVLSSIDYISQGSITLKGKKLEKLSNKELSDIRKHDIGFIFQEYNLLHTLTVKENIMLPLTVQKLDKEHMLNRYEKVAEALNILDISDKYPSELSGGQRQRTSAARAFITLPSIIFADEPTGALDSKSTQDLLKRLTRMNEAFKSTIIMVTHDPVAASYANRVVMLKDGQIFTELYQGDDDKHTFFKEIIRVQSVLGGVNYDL
UniProt P02769, residues 25-607: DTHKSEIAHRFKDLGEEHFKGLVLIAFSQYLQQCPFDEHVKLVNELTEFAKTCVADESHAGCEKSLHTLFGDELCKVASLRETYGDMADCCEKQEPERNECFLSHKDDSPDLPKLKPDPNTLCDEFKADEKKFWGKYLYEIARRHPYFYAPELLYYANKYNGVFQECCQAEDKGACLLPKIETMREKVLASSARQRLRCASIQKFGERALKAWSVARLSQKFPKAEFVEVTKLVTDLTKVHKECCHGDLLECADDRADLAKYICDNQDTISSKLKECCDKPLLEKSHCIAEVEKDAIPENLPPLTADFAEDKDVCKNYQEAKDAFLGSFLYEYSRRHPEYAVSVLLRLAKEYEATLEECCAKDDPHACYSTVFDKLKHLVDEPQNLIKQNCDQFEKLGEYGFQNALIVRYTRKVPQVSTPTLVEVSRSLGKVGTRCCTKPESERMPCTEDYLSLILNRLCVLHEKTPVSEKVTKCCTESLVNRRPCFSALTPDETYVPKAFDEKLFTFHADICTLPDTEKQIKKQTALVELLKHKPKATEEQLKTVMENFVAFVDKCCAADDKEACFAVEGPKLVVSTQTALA

Where two headings read alike, the source gives them in different places. No constants are given. Whether binding was seen depends on the method and setting. Some binding calls cover weakened binding; strength is not graded here. For some of these results: Tags and fused reporters may be left off the sequences shown.

Assay [1] has as its target GST-GraS, cytoplasmic domain of histidine kinase GraS (77-346) fused to GST (S. aureus strain Mu50) (UniProt Q99VW1). In words: pull-down; GST-fused bait immobilised on glutathione-sepharose resin in 1 x PBS; prey added at bait:prey ratios of about 1:1 to 1:2, 30 min at room temperature; five to seven washes; elution with 10 mM reduced glutathione in 50 mM Tris pH 8.0; SDS-PAGE; both purified.

The target of assay [2] is His-VraF, ATPase protein of the ABC transporter VraFG with a C-terminal His6 tag (S. aureus strain Mu50) (UniProt Q9KWJ5). As to the kind of experiment: pull-down; MAT-FLAG-GraX or His-VraF immobilised on Ni-NTA agarose resin; prey added (GraR at about 1:1.2, GraX at 1:2), room temperature; washes; elution fractions on SDS-PAGE; both purified.
For assay [3], the target named is GraR^N (1-134) (S. aureus strain Mu50) (UniProt Q932F1). As to the kind of experiment: SEC; HPLC size-exclusion column TSK Gel (7.8mm x 30cm, 5um) calibrated with standard proteins; both purified. (In gel filtration, larger molecules generally elute earlier.)
The target of assay [4] is GraR, response regulator of S. aureus (S. aureus strain Mu50) (UniProt Q932F1). Described as above.
In assay [5] the target is GST-GraS, cytoplasmic domain of histidine kinase GraS (77-346) fused to GST (S. aureus strain Mu50) (UniProt Q99VW1). In words: pull-down; GST-fused bait immobilised on glutathione-sepharose resin in 1 x PBS; prey added at bait:prey ratios of about 1:1 to 1:2, 30 min at room temperature; five to seven washes; elution with 10 mM reduced glutathione in 50 mM Tris pH 8.0; SDS-PAGE; both purified. This is another data set of the same source.

Assay [6] addresses GST-GraS^CA, ATP-binding domain of GraS (181-346) fused to GST (S. aureus strain Mu50) (UniProt Q99VW1). The assay is described as above.
The target of assay [7] is GST-GraS^DHp-CA, DHp and CA domains of GraS (110-346) fused to GST (S. aureus strain Mu50) (UniProt Q99VW1). The description is as above.

Turning to “bovine serum albumin (from UniProt P02769 25-607)”, in assay [1], the binding result was “no binding (tested: ratio of 1:1)”.

As to “GST-GraS^CA, ATP-binding domain of GraS (181-346) fused to GST (from UniProt Q99VW1 181-346) (domain or fragment)”, in assay [2], the binding result is given as “no binding”.

In the case of “GST-GraS, cytoplasmic domain of histidine kinase GraS (77-346) fused to GST (from UniProt Q99VW1 77-346) (domain or fragment)”, the binding result in assay [2] is reported as “binds”.

As for “GraR^N (1-134) (from UniProt Q932F1 1-134) (domain or fragment)”, in assay [3], the binding entry was “no binding”.

Consider “GST-GraS^DHp-CA, DHp and CA domains of GraS (110-346) fused to GST (from UniProt Q99VW1 110-346) (domain or fragment)”, for which, in assay [2], the binding result was “no binding”.

B1: GraR, response regulator of S. aureus (protein, UniProt Q932F1 1-224)
chain: MQILLVEDDNTLFQELKKELEQWDFNVAGIEDFGKVMDTFESFNPEIVILDVQLPKYDGFYWCRKMREVSNVPILFLSSRDNPMDQVMSMELGADDYMQKPFYTNVLIAKLQAIYRRVYEFTAEEKRTLTWQDAVVDLSKDSIQKGDDTIFLSKTEMIILEILITKKNQIVSRDTIITALWDDEAFVSDNTLTVNVSRLRKKLSEISMDSAIETKVGKGYMAHE
As for B1, the binding entry in assay [4] is given as “no binding”.

B2: GraX, auxiliary protein (tagless) (natural protein)
chain: MKPKVLLAGGTGYIGKYLSEVIENDAELFAISKYPDNKKTDDVEMTWIQCDIFHYEQVVAAMNQIDIAVFFIDPTKNSAKITQSSARDLTLIAADNFGRAAAINQVKKVIYIPGSRYDNETIERLGAYGTPVETTNLVFKRSLVNVELQVSKYDDVRSTMKVVLPKGWTLKNVVNHFIAWMGYTKGTFVKTEKSHDQFKIYIKNKVRPLAVFKIEETADGIITLILLSGSLVKKYTVNQGKLEFRLIKESAVVYIHLYDYIPRLFWPIYYFIQAPMQKMMIHGFEVDCRIKDFQSRLKSGENMKYTK
notes: Auxiliary protein GraX, S. aureus strain Mu50, full length graX gene; Cloned in pET26b between NdeI and HindIII; Dimers seen by SDS-PAGE without DTT; also called untagged GraX; source: E. coli BL21(DE3), purified (SP-Sepharose cation exchange), to 90%
Turning to B2, the binding result is “binds” in assay [2], “binds” in assay [5], “no binding (tested: ratio of 1:1.2 GraX:GST-GraS^CA)” in assay [6] and “binds” in assay [7].
